Experimental data as given in the RNAGym collection of RNA variant scans (doi:10.7554/elife.90254).
The source gives no read counts; variants with many changes may rest on few reads.

B1: OR4K15 (parent)
chain: GUUAACGGUCAUAGGCCAUGGAAACUAGGAGCACCAUUUCGCUGCCAGUGAAGAAAUGAACAAAGAAAAUCUGGGCCAGGCAGGCAUCAAAAGAAAUAGUCUUGCGCUCAACCAGAAAGUCUGUAAUCAUUUUAAGGGUA

Variants of: B1
Test: self-cleavage, relative activity (ratio to wild type); higher = more cleavage; in vitro, sequencing; the parent is a self-cleaving ribozyme

Variant	self-cleavage
A18G A24U A78U G99C A116G	0.01
G14A A24G U108A U122C A140G	0
A18G A56G A66G	1.08
A18G A59G U132C	2.39
A18G A24G U38C A52G A78U A140U	1.03
A13G G31A A56G	1.16
G15C A67U U131C	1.32
A13G A24G U122C	1.18
G14A A86G A117G	1.96
G14A A22G A63U U108C U130C	0.01
C17U C107U A125G U127C	0.01
A13U A118G U131C	0.67
A18G A33G A51G A116U U120C	0.1
A13U U70C A111G	0.03
A18G A54G A78U A86G U127C	0.11
A13G A52G A60G U103C U131C	0.5
A13U A52U A67G A117G A135G	0.98
A13U A24G G74A	0.62
A18G A22G U108A A117G	0
A13U U120C U131C A135G	1.12
A18G A36C A52G A110G G115A	0.02

Variant	self-cleavage
G14A A52G U87C A96G	0.62
A13G U70A U122C G123C U124A	0.19
A13G A22G U43G A56G	0.86
A18G A22G A90G	1.03
A18G A52G A116G	0.86
A13G A82G A95G A96G U108C A116G	0.05
A18G A47U A78U U127C	0.19
A13G U19C U39C A62G U70C C88G U97C A110G U131C	0.01
A13U U38C A56G A98G	0.76
A13G A69G U120C G136A	0.74
A13G C17G A51U	1
A13G U37C U72A A86G U87C U131C	0.11
A13G A18G A30G A91G U102A A111G	0.03
G14C U37C A82G U130C U131C	0.31
G15U A18G U122C	1.34
A13G U26A U102A	1.27
C17A G21A U103A A114G A117G	0.04
G15A U37C A92G A126G	0.39
G14A A18U A22G	1.5
A13U A54U A68G U132C	1.69
G14A A91G A126G	0.33

Variant	self-cleavage
G15U A68G A116G A118G	0.18
A13U A86G A90G	0.58
A13G G106A A126G	0.03
A13G U49C U72C A82U	0.41
A13U A51U U102C A111G A114G	0
A13U A24G U26C U38C U72C A82U	0.48
G15A A30G A86G A90G A114G	0.2
A13G A30U U39C A67G U70C A92G A126G	0.47
C16U U19G U43C A111G	0.12
A13G A64G C76G A89U C121U	0.35
A18G A52G G53A A59U U102A G136U	1.5
A13G A55G A63G U108C U130C	0.02
G14A A47U A114G	0.14
C16U A23G A52U	0.18
G14A U26C U37C A59C	1.23
A13G U43C U57C	0
A13G A51C U57C A60G A68G	0.8
A13G A23G A51G A110G	0.39
C16U A47G A90G U124C	0.51
A13U A24G A60G A63G A96G G99A G119C	0.34
A18C U102C U120C	1.32

Variant	self-cleavage
A18G A55G U133C	1.78
G14A A22G U37G A54G A89G A95G	1.04
A13G A22G U108C	0.02
A13G U49G U57C	1.87
A13U A24G A91C A95G A111G	0.03
A18G A60U A91C	0.95
A13U A33G U131A	0.52
A13G A23G A67G A86U	1.4
G14A U70C A90G	0.52
A13G U43C A64G A126G	0.14
A18G A54G U70G	1.5
A13G U37C A60G	0.84
A18G A23G A56G A68G	0.96
A13G U49C A59G U72C A117G	0.42
A18G A30G A52G A68G A89G	2.23
A13G U87C U120A	0.51
G14A U72C C112U	0
C16A A63G U120C	0.78
C17G U19C U122C	0.22
C17U A23G U26C A47G A94G U124C	0.61
C16A C85U C109A	0.16
